Experiment [1] concerns the target T1, human complement C5 (human, UniProt P01031 19-673; P01031 part only). Put plainly: BLI (Gator); pH 7.4.
The next experiment deals with T2, Cyno FcRn (Cynomolgus, UniProt Q8SPV9 24-297; Q8SPW0 21-119).
T2 chain 1: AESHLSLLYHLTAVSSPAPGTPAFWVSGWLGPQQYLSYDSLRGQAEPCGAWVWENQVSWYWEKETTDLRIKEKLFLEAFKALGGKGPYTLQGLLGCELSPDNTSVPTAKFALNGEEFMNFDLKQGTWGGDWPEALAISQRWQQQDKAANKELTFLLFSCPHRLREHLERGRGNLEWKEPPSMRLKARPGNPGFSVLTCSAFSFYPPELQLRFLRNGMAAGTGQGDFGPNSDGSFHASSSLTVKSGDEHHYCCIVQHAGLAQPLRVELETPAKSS
T2 chain 2: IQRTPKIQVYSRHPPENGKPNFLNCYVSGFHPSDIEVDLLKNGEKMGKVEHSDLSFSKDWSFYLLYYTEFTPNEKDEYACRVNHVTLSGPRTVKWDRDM
Put plainly: SPR (Biacore); pH 6.0. (In SPR one partner is held on a chip, and binding of the other changes the refractive index at the surface.)

In experiment [2] the target is T1, human complement C5. Briefly: BLI (Gator); pH 5.8.

B1: anti-C5 mAb/FH SCR1-5 fusion protein FMEH-IgG4PLA-FH1-5 (other)
heavy: QVQLVQSGAEVKKPGASVKVSCKASGYTITDYHFDWVRQAPGQGLEWMGDISMNYGYHIYNQKFKDRVTMTTDTSTSTAYMELRSLRSDDTAVYYCARRDIRYSGNSYKWYFDEWGQGTMVTVSSASTKGPSVFPLAPCSRSTSESTAALGCLVKDYFPEPVTVSWNSGALTSGVHTFPAVLQSSGLYSLSSVVTVPSSSLGTKTYTCNVDHKPSNTKVDKRVESKYGPP[letters of human IgG4 Fc with S228P M428L N434A (EU numbers) not shown]EDCNELPPRRNTEILTGSWSDQTYPEGTQAIYKCRPGYRSLGNVIMVCRKGEWVALNPLRKCQKRPCGHPGDTPFGTFTLTGGNVFEYGVKAVYTCNEGYQLLGEINYRECDTDGWTNDIPICEVVKCLPVTAPENGKIVSSAMEPDREYHFGQAVRFVCNSGYKIEGDEEMHCSDDGFWSKEKPKCVEISCKSPDVINGSPISQKIIYKENERFQYKCNMGYEYSERGDAVCTESGWRPLPSCEEKSCDNPYIPNGDYSPLRIKHRTGDEITYQCRNGFYPATRGNTAKCTSTGWIPAPRCTL
light: DIQLTQSPSFLSASVGDRVTITCRTSKSISKHLAWYQQKPGKAPKLLIYSGSTLQSGVPSRFSGSGSGTEFTLTISSLQPEDFATYYCQQHNEYPYTFGQGTKLEIK
B1: the Kd (in general, a measure of binding affinity in units of concentration) with human complement C5 [1] was found to be 1.51 nM; with human complement C5 [2], 15 nM. Moreover, the Ka with Cyno FcRn was found to be 2.56e+07 M⁻¹.

For the origin of these results see US20220204602A1 (published 2022).
